# Experimental data published in publication PMC4466884.
# Chains of the proteins cited; added tags and fusions are not shown.
# UniProt Q96RS0: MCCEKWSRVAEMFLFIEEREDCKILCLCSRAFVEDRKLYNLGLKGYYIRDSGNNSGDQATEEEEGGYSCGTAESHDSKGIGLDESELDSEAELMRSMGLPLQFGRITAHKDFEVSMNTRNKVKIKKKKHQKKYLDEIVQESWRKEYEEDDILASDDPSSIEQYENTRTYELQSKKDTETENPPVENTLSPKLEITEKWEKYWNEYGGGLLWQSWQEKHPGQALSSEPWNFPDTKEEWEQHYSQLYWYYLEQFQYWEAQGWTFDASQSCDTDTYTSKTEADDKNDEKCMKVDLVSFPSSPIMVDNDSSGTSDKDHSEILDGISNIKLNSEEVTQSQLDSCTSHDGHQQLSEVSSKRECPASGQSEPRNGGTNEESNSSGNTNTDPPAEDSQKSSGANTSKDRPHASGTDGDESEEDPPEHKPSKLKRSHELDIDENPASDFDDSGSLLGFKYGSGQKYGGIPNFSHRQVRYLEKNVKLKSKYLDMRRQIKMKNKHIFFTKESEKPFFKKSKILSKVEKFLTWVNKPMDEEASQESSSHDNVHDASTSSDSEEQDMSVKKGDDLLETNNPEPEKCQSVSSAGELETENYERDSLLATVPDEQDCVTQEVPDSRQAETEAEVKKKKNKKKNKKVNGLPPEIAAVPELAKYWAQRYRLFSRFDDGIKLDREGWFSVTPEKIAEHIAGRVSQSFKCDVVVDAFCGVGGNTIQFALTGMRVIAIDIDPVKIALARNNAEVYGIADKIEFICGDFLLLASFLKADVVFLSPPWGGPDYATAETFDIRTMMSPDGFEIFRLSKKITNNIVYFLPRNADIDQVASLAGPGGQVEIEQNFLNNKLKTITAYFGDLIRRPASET
# Results are given in words; binding and its absence hold for the method and conditions named. Some results given as binding are weak or reduced against the parent protein; the word gives no strength. For some assays here: Where a sequence is shown, tags or fusion partners need not be part of it.
# Columns and labels:
# [1] = biological target: T1, Swm2p (synthetic with Mud2), yeast two-hybrid fusion (S. cerevisiae) (UniProt P40342); assay: two-hybrid; GAL4-BD baits (pGBKT7) and GAL4-AD preys (pGADT7) co-transformed into reporter strain PJ69-4A; 10-fold serial dilutions spotted on SDC-Trp-Leu and SDC-Trp-Leu-His (HIS3 reporter), 30 °C
# T1 sequence: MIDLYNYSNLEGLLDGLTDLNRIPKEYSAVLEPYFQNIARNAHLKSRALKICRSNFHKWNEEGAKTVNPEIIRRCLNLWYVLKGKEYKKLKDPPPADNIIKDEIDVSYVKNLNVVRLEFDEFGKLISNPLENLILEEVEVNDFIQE
# [2] = biological target: human Tgs1p, full-length (aa1-853), yeast two-hybrid fusion (human) (UniProt Q96RS0); assay: as above
substance,measurement,setting,value
"human Tgs1p, full-length (aa1-853), yeast two-hybrid fusion (from UniProt Q96RS0 1-853)",binding,[1],no binding
same,binding,[2],binds
